Results from PubChem BioAssay AID624417 (National Center for Advancing Translational Sciences (NCATS), 2012).
In all, about 410,000 compounds went through this assay and about 6,400 (1.6%) were called active. The inconclusive results got no clear call from the source; some entries with a clear call stand among them for comparison. Calls come from the whole dose curve; as a rule, active = well fitted inhibition curve with a large enough effect; inconclusive = small, poorly fitted or top-dose-only effect; inactive = no such curve, though single readings can be large or run the other way. No potency is given beside an inconclusive call; the fits are too rough.

Each molecule was assayed against Glucagon-like peptide 1 receptor (Homo sapiens) (UniProt P43220) (assay: qHTS of GLP-1 Receptor Inverse Agonists (Inhibition Mode)). Settings: HEK293 GLP-1R CRE-luciferase, luminescence, 24 h, GLP-1R form is constitutively active; series mostly up to 38.3 µM.
Chain of UniProt P43220 (P43220 whole entry, looked up): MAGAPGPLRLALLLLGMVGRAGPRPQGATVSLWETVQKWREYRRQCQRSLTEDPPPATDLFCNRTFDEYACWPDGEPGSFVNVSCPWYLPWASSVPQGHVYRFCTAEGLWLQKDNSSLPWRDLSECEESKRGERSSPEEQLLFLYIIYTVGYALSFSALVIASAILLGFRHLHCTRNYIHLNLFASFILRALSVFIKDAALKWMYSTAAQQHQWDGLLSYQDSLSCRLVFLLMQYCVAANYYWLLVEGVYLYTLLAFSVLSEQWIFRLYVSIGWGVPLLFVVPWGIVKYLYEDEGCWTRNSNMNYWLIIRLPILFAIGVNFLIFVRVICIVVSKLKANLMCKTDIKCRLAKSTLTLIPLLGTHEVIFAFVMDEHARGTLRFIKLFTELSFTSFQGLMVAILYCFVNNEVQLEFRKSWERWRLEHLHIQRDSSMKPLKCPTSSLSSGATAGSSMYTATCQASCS
How it was run: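 Stable HEK293 clone (constitutively active GLP-1R + cAMP-response luciferase); 200 cells/uL plated, 12 h pre-culture, compound 24 hr, 37 deg C/5% CO2; detection reagent 12 min RT; luminescence.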
Note: nearly all actives have a fitted effect of over 55% in size.
Potency is the fitted concentration of half-maximal effect; tags give direction and shape of the fitted curve.

| Structure (SMILES) | Potency |
| --- | --- |
| CC1CCCC(NC(=O)NC(=O)COC(=O)c2ccc(O)cc2O)C1C (stereo not drawn) | inconclusive [inhibitor, single point] |
| COc1ccc(C(=O)N/C(=C\c2cccc3ccccc23)C(=O)N2CCN(C)CC2)cc1 | inconclusive [inhibitor, single point] |
| CCOc1ccc(N(CC(=O)Nc2cccc(N(C)S(C)(=O)=O)c2)S(=O)(=O)c2ccccc2)cc1 | inconclusive [inhibitor, partial curve, poor fit] |
| CN(c1ccccc1)S(=O)(=O)c1ccc(Cl)c(C(=O)Nc2nc3ccccc3[nH]2)c1 | inactive |
| COc1ccc(CNC(=O)COc2ccc(S(=O)(=O)N3CCCCC3)cc2Cl)cc1 | inconclusive [inhibitor, single point] |
| Cc1cc(Oc2cnn(C(C)(C)C)c(=O)c2Cl)cc(C(C)C)c1 | inconclusive [inhibitor, single point] |
| CC1=C(C(=O)Nc2ccccc2)C(c2ccccc2C)n2ncc(C(=O)Nc3ccccc3)c2N1 (stereo not drawn) | inconclusive [inhibitor, single point] |
| O=C(CN1CCN(C(C(=O)Nc2ccc(Cl)cc2C(F)(F)F)c2ccccc2)CC1)NC1CC1 (stereo not drawn) | inconclusive [inhibitor, single point] |
| NC(=O)CC(O)c1cccc(Cl)c1 (stereo not drawn) | inactive |
| COc1ccc(-n2nc(C(=O)NCC(=O)N3CCCCCC3)c3ccccc3c2=O)c(OC)c1 | inactive |
| Cc1cccc(NCCNc2cccc(C)c2)c1 | inconclusive [inhibitor, single point] |
| CC(=O)NC(c1ccc(Cl)cc1)c1ccc2cccnc2c1O (stereo not drawn) | inconclusive [inhibitor, full curve, poor fit] |
| O=C(COC(=O)c1cc(-c2cccs2)nc2ccccc12)c1ccc(Br)cc1 | inactive |
| CCCCC[C@@H](C)N1C[C@H](COCc2ccccc2)Oc2cc(N3CC[C@H](N(C)C)C3)ccc2S1(=O)=O | inconclusive [inhibitor, partial curve, poor fit] |
| CCCC(=O)OCC(=O)NCc1ccc(Cl)cc1 | inactive |
| O=c1[nH]c(CN2CCN(Cc3ccccc3)CC2)nc2scc(-c3ccccc3)c12 | inconclusive [inhibitor, partial curve] |
| O=C(CC12CC3CC(CC(C3)C1)C2)NC(=S)Nc1ccc(CN2CCOCC2)cc1 | inconclusive [inhibitor, full curve, poor fit] |
| CCN(CC)S(=O)(=O)c1cccc(NC(=O)C2CC(=O)N(c3ccc4c(c3)OCCO4)C2)c1 (stereo not drawn) | inconclusive [inhibitor, single point] |
